Publication PMC3182262
Results are given in words; binding and its absence hold for the method and conditions named. Binding seen in cells or lysates may run through a third protein. Some entries that bind do so weakly or less than the wild type. Where a sequence is shown, tags or fusion partners need not be part of it.

T1: FLAG-TTRAP, transiently expressed in HEK293T cells (UniProt O95551)
T1 sequence: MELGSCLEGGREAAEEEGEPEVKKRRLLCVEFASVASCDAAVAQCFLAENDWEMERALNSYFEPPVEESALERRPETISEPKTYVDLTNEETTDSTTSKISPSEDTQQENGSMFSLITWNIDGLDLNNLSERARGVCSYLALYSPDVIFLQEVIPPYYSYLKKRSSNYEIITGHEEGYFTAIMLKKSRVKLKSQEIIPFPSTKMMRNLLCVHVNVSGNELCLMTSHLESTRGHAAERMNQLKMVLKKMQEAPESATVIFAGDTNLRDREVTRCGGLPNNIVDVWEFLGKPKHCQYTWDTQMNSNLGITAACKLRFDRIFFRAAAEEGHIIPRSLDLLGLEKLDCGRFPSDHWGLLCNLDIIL

T2: TRAF6(C70A), catalytically deficient RING domain mutant, FLAG tagged (UniProt Q9Y4K3)
T2 sequence: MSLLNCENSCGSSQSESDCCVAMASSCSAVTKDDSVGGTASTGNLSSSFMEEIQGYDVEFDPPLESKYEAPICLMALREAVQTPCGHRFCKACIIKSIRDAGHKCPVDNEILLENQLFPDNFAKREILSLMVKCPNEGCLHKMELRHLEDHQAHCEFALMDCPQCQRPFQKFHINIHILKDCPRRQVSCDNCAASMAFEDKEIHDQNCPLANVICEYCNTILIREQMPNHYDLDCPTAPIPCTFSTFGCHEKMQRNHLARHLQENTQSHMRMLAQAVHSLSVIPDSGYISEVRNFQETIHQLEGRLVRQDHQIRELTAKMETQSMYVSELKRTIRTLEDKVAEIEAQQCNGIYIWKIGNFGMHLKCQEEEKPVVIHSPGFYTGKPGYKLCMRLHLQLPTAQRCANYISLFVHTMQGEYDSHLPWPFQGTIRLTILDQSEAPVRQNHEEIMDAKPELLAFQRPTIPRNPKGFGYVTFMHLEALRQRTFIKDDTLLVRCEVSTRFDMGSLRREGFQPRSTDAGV

T3: FLAG epitope tagged TTRAP (TRAF and TNF receptor associated protein), stably expressed in NMuMG cells (UniProt O95551)
T3 sequence: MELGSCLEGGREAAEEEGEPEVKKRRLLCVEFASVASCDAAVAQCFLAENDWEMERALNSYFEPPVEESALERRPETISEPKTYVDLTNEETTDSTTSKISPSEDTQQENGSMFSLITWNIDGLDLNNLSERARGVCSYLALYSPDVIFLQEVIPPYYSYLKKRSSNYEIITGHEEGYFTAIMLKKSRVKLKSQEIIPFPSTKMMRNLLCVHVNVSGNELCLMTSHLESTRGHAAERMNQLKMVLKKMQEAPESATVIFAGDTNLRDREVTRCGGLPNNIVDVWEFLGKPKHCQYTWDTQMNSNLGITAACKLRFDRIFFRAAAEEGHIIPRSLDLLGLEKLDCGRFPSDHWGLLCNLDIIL


Assays:
[1] = target: T1, FLAG-TTRAP, transiently expressed in HEK293T cells; assay: co-IP; proteins co-expressed in HEK293T cells; TTRAP precipitated from the lysates (FLAG); western blotting; in one panel cells treated with 0.5 µM (5Z)-7-oxozeaenol
[2] = target: T2, TRAF6(C70A), catalytically deficient RING domain mutant, FLAG tagged; assay: co-IP; proteins co-expressed in HEK293T cells; TRAFs (TRAF6, TRAF6(C70A), TRAF2) pulled down from total lysates; western blotting
[3] = target: T3, FLAG epitope tagged TTRAP (TRAF and TNF receptor associated protein), stably expressed in NMuMG cells; assay: co-IP; FLAG-TTRAP precipitated with FLAG affinity beads from lysates of NMuMG cells stably expressing it, untreated or treated with TGF-β (4 ng/ml); endogenous partner detected by western blotting
[4] = target: T3, FLAG epitope tagged TTRAP (TRAF and TNF receptor associated protein), stably expressed in NMuMG cells; assay: co-IP; FLAG-TTRAP precipitated from NMuMG cells stably expressing it after 180 minutes of TGF-β treatment; endogenous TAK1 detected by western blotting

Binder	binding [1]	other results
HA epitope tagged TAK1 (TGF-β-activated kinase 1), wild type (enzyme, UniProt O43318 1-606) MSTASAASSSSSSSAGEMIEAPSQVLNFEEIDYKEIEVEEVVGRGAFGVVCKAKWRAKDVAIKQIESESERKAFIVELRQLSRVNHPNIVKLYGACLNPVCLVMEYAEGGSLYNVLHGAEPLPYYTAAHAMSWCLQCSQGVAYLHSMQPKALIHRDLKPPNLLLVAGGTVLKICDFGTACDIQTHMTNNKGSAAWMAPEVFEGSNYSEKCDVFSWGIILWEVITRRKPFDEIGGPAFRIMWAVHNGTRPPLIKNLPKPIESLMTRCWSKDPSQRPSMEEIVKIMTHLMRYFPGADEPLQYPCQYSDEGQSNSATSTGSFMDIASTNTSNKSDTNMEQVPATNDTIKRLESKLLKNQAKQQSESGRLSLGASRGSSVESLPPTSEGKRMSADMSEIEARIAATTAYSKPKRGHRKTASFGNILDVPEIVISGNGQPRRRSIQDLTVTGTEPGQVSSRSSSPSVRMITTSGPTSEKPTRSHPWTPDDSTDTNGSDNSIPMAYLTLDHQLQPLAPCPNSKESMAVFEQHCKMAQEYMKVQTEIALLLQRKQELVAELDQDEKDQQNTSRLVQEHKKLLDENKSLSTYYQQCKKQLEVIRSQQQKRQGTS	binds	binding [2]: binds
HA-TAK1 E39G point mutant (catalytically active) (enzyme, UniProt O43318 1-606) MSTASAASSSSSSSAGEMIEAPSQVLNFEEIDYKEIEVGEVVGRGAFGVVCKAKWRAKDVAIKQIESESERKAFIVELRQLSRVNHPNIVKLYGACLNPVCLVMEYAEGGSLYNVLHGAEPLPYYTAAHAMSWCLQCSQGVAYLHSMQPKALIHRDLKPPNLLLVAGGTVLKICDFGTACDIQTHMTNNKGSAAWMAPEVFEGSNYSEKCDVFSWGIILWEVITRRKPFDEIGGPAFRIMWAVHNGTRPPLIKNLPKPIESLMTRCWSKDPSQRPSMEEIVKIMTHLMRYFPGADEPLQYPCQYSDEGQSNSATSTGSFMDIASTNTSNKSDTNMEQVPATNDTIKRLESKLLKNQAKQQSESGRLSLGASRGSSVESLPPTSEGKRMSADMSEIEARIAATTAYSKPKRGHRKTASFGNILDVPEIVISGNGQPRRRSIQDLTVTGTEPGQVSSRSSSPSVRMITTSGPTSEKPTRSHPWTPDDSTDTNGSDNSIPMAYLTLDHQLQPLAPCPNSKESMAVFEQHCKMAQEYMKVQTEIALLLQRKQELVAELDQDEKDQQNTSRLVQEHKKLLDENKSLSTYYQQCKKQLEVIRSQQQKRQGTS	binds	–
HA-TAK1 ATP binding site mutant (K63W) (enzyme, UniProt O43318 1-606) MSTASAASSSSSSSAGEMIEAPSQVLNFEEIDYKEIEVEEVVGRGAFGVVCKAKWRAKDVAIWQIESESERKAFIVELRQLSRVNHPNIVKLYGACLNPVCLVMEYAEGGSLYNVLHGAEPLPYYTAAHAMSWCLQCSQGVAYLHSMQPKALIHRDLKPPNLLLVAGGTVLKICDFGTACDIQTHMTNNKGSAAWMAPEVFEGSNYSEKCDVFSWGIILWEVITRRKPFDEIGGPAFRIMWAVHNGTRPPLIKNLPKPIESLMTRCWSKDPSQRPSMEEIVKIMTHLMRYFPGADEPLQYPCQYSDEGQSNSATSTGSFMDIASTNTSNKSDTNMEQVPATNDTIKRLESKLLKNQAKQQSESGRLSLGASRGSSVESLPPTSEGKRMSADMSEIEARIAATTAYSKPKRGHRKTASFGNILDVPEIVISGNGQPRRRSIQDLTVTGTEPGQVSSRSSSPSVRMITTSGPTSEKPTRSHPWTPDDSTDTNGSDNSIPMAYLTLDHQLQPLAPCPNSKESMAVFEQHCKMAQEYMKVQTEIALLLQRKQELVAELDQDEKDQQNTSRLVQEHKKLLDENKSLSTYYQQCKKQLEVIRSQQQKRQGTS	no binding	–
HA-TAK1 activation loop mutant (S192A) (enzyme, UniProt O43318 1-606) MSTASAASSSSSSSAGEMIEAPSQVLNFEEIDYKEIEVEEVVGRGAFGVVCKAKWRAKDVAIKQIESESERKAFIVELRQLSRVNHPNIVKLYGACLNPVCLVMEYAEGGSLYNVLHGAEPLPYYTAAHAMSWCLQCSQGVAYLHSMQPKALIHRDLKPPNLLLVAGGTVLKICDFGTACDIQTHMTNNKGAAAWMAPEVFEGSNYSEKCDVFSWGIILWEVITRRKPFDEIGGPAFRIMWAVHNGTRPPLIKNLPKPIESLMTRCWSKDPSQRPSMEEIVKIMTHLMRYFPGADEPLQYPCQYSDEGQSNSATSTGSFMDIASTNTSNKSDTNMEQVPATNDTIKRLESKLLKNQAKQQSESGRLSLGASRGSSVESLPPTSEGKRMSADMSEIEARIAATTAYSKPKRGHRKTASFGNILDVPEIVISGNGQPRRRSIQDLTVTGTEPGQVSSRSSSPSVRMITTSGPTSEKPTRSHPWTPDDSTDTNGSDNSIPMAYLTLDHQLQPLAPCPNSKESMAVFEQHCKMAQEYMKVQTEIALLLQRKQELVAELDQDEKDQQNTSRLVQEHKKLLDENKSLSTYYQQCKKQLEVIRSQQQKRQGTS	no binding	–
endogenous TAK1 of NMuMG cells (enzyme, UniProt Q62073 1-579) MSTASAASSSSSSSASEMIEAPSQVLNFEEIDYKEIEVEEVVGRGAFGVVCKAKWRAKDVAIKQIESESERKAFIVELRQLSRVNHPNIVKLYGACLNPVCLVMEYAEGGSLYNVLHGAEPLPYYTAAHAMSWCLQCSQGVAYLHSMQPKALIHRDLKPPNLLLVAGGTVLKICDFGTACDIQTHMTNNKGSAAWMAPEVFEGSNYSEKCDVFSWGIILWEVITRRKPFDEIGGPAFRIMWAVHNGTRPPLIKNLPKPIESLMTRCWSKDPSQRPSMEEIVKIMTHLMRYFPGADEPLQYPCQYSDEGQSNSATSTGSFMDIASTNTSNKSDTNMEQVPATNDTIKRLESKLLKNQAKQQSESGRLSLGASRGSSVESLPPTSEGKRMSADMSEIEARIVATAGNGQPRRRSIQDLTVTGTEPGQVSSRSSSPSVRMITTSGPTSEKPARSHPWTPDDSTDTNGSDNSIPMAYLTLDHQLQPLAPCPNSKESMAVFEQHCKMAQEYMKVQTEIALLLQRKQELVAELDQDEKDQQNTSRLVQEHKKLLDENKSLSTYYQQCKKQLEVIRSQQQKRQGTS	–	binding [3]: binds; binding [4]: binds weakly

More lines, main results first:

binding [1]	Binder	other results
no binding	HA-TAK1 activation loop mutant (T184,187V) (enzyme, UniProt O43318 1-606) MSTASAASSSSSSSAGEMIEAPSQVLNFEEIDYKEIEVEEVVGRGAFGVVCKAKWRAKDVAIKQIESESERKAFIVELRQLSRVNHPNIVKLYGACLNPVCLVMEYAEGGSLYNVLHGAEPLPYYTAAHAMSWCLQCSQGVAYLHSMQPKALIHRDLKPPNLLLVAGGTVLKICDFGTACDIQVHMVNNKGSAAWMAPEVFEGSNYSEKCDVFSWGIILWEVITRRKPFDEIGGPAFRIMWAVHNGTRPPLIKNLPKPIESLMTRCWSKDPSQRPSMEEIVKIMTHLMRYFPGADEPLQYPCQYSDEGQSNSATSTGSFMDIASTNTSNKSDTNMEQVPATNDTIKRLESKLLKNQAKQQSESGRLSLGASRGSSVESLPPTSEGKRMSADMSEIEARIAATTAYSKPKRGHRKTASFGNILDVPEIVISGNGQPRRRSIQDLTVTGTEPGQVSSRSSSPSVRMITTSGPTSEKPTRSHPWTPDDSTDTNGSDNSIPMAYLTLDHQLQPLAPCPNSKESMAVFEQHCKMAQEYMKVQTEIALLLQRKQELVAELDQDEKDQQNTSRLVQEHKKLLDENKSLSTYYQQCKKQLEVIRSQQQKRQGTS	–
binds	HA-TAK1 with lysine-34 replaced by arginine (enzyme, UniProt O43318 1-606) MSTASAASSSSSSSAGEMIEAPSQVLNFEEIDYREIEVEEVVGRGAFGVVCKAKWRAKDVAIKQIESESERKAFIVELRQLSRVNHPNIVKLYGACLNPVCLVMEYAEGGSLYNVLHGAEPLPYYTAAHAMSWCLQCSQGVAYLHSMQPKALIHRDLKPPNLLLVAGGTVLKICDFGTACDIQTHMTNNKGSAAWMAPEVFEGSNYSEKCDVFSWGIILWEVITRRKPFDEIGGPAFRIMWAVHNGTRPPLIKNLPKPIESLMTRCWSKDPSQRPSMEEIVKIMTHLMRYFPGADEPLQYPCQYSDEGQSNSATSTGSFMDIASTNTSNKSDTNMEQVPATNDTIKRLESKLLKNQAKQQSESGRLSLGASRGSSVESLPPTSEGKRMSADMSEIEARIAATTAYSKPKRGHRKTASFGNILDVPEIVISGNGQPRRRSIQDLTVTGTEPGQVSSRSSSPSVRMITTSGPTSEKPTRSHPWTPDDSTDTNGSDNSIPMAYLTLDHQLQPLAPCPNSKESMAVFEQHCKMAQEYMKVQTEIALLLQRKQELVAELDQDEKDQQNTSRLVQEHKKLLDENKSLSTYYQQCKKQLEVIRSQQQKRQGTS	–
